From PubChem BioAssay AID360 (National Center for Advancing Translational Sciences (NCATS), 2006)
About 550 (1.1%) of roughly 48,000 compounds were called active. Roughly 4% stayed inconclusive and do not appear here. No stated cut-off is given here; in the data, active means potency below about 15 µM; inconclusive means mostly about 16 µM to 33 µM; inactive means weaker than that. Some of the results follow.

The compounds below were run against Lysosomal acid glucosylceramidase (Homo sapiens) (UniProt P04062) (assay: Glucocerebrosidase). Conditions: purified enzyme, resorufin glucoside fluorescence (screen aimed at inhibitors), 20 min.
How it was run: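 Normal human glucocerebrosidase (0.2 nM final) was assayed with resorufin β-D-glucopyranoside (30 uM final) in 50mM citric acid/KH2PO4, 10mM sodium taurocholate, 0.01% tween-20, pH 5.9. Compounds were titrated; fluorescence (Ex 548, Em 600) read after 20 min at RT.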
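Further: the screen sought inhibitors.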
Potency means the concentration at half of the fitted maximal effect.

UniProt P04062, sequence (P04062 whole entry, looked up): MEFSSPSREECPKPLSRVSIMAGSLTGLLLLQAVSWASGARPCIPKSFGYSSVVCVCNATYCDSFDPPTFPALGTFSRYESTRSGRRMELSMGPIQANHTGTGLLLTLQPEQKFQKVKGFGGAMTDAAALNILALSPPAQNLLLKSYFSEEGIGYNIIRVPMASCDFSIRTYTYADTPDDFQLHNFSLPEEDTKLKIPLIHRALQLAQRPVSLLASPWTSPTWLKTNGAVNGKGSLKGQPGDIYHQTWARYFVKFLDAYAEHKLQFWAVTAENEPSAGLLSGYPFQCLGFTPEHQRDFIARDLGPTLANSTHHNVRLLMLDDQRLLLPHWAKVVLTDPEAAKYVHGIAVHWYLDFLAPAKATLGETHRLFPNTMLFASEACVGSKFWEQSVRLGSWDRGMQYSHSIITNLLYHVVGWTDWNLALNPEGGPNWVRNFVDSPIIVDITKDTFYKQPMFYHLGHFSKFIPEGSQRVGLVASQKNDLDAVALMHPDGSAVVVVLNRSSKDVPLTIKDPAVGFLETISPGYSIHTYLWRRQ

Potency, inactive:
Cc1cc(S(=O)(=O)NCCN2CCOCC2)c(C)s1 > 76.9 µM
Cc1ccccc1SCC(=O)NC1CCOC1=O (stereo not given) > 76.9 µM
COc1cccc(NS(=O)(=O)c2cc(C)ccc2OC)c1 > 76.9 µM
Cc1ccc(N2CCn3c2nc2c3c(=O)n(CCc3ccccc3)c(=O)n2C)cc1 > 76.9 µM
Cc1ccc(N(C(C)C(=O)Nc2ccc3c(c2)OCO3)S(C)(=O)=O)cc1 (stereo not given) > 76.9 µM
O=C(O)CCCC(=O)Nc1ccccc1C(=O)N1CCCC1 > 76.9 µM
Cn1c(=O)c2c(nc(Br)n2Cc2ccccc2Cl)n(C)c1=O > 76.9 µM
Cn1c(=O)[nH]c(=O)c2c1nc(N1CCOCC1)n2CC(O)COc1ccc2ccccc2c1 (stereo not given) > 76.9 µM
O=C(c1cc2ccccc2c(=O)o1)N1CCCc2ccccc21 > 76.9 µM
Cc1ccc(-n2nnc3c(=O)n(CC(=O)NCC4CCCO4)cnc32)cc1 (stereo not given) > 76.9 µM
COc1ccc(-c2ccc(-c3noc(-c4ccccc4F)n3)c(OC)n2)cc1 > 76.9 µM
O=C(O)c1cccc(S(=O)(=O)N2CCSCC2)c1 > 76.9 µM
COc1ccc(CN(C(=O)c2oc3ccccc3c2C)C2CCS(=O)(=O)C2)cc1 (stereo not given) > 76.9 µM
CCCS(=O)(=O)N1CCN(c2ccccn2)CC1 > 76.9 µM
O=C(C1CCCN1S(=O)(=O)c1ccc(Cl)c(Cl)c1)N1CCOCC1 (stereo not given) > 76.9 µM
CCCCCn1c(=O)[nH]c2cc(C(=O)O)ccc2c1=O > 76.9 µM
COc1cc2c(C)nc(C)c(C#N)c2cc1OC > 76.9 µM
COc1ccc(S(=O)(=O)N2CCOCC2)cc1C(=O)Nc1ccon1 > 76.9 µM
O=C(CSc1nccn1-c1cccc(Cl)c1)NC1CCCC1 > 76.9 µM
Cc1cc(NC(=O)CCCC(=O)OCC(F)(F)C(F)F)cc(C)c1C(=O)O > 76.9 µM
COc1ccc(NC(=O)CCCNS(=O)(=O)c2cccs2)cc1 > 76.9 µM
Cc1ccc(-c2nn3c(C)nnc3c3ccccc23)cc1S(=O)(=O)NCc1ccco1 > 76.9 µM
CC(=O)c1cccc(NC(=O)N2CCCC2C(=O)NCc2ccccc2)c1 (stereo not given) > 76.9 µM
COc1cc(-c2nc(N)n[nH]2)cc(OC)c1OC > 76.9 µM
Cc1cc(C)nc(N2CCC(C(=O)NCCc3ccc(F)cc3)CC2)n1 > 76.9 µM
COC(=O)COc1ccc(S(=O)(=O)N2CCN(c3ccccc3F)CC2)cc1 > 76.9 µM
COc1ccc(OC)c(C(=O)CSc2nnc(Cc3cccs3)n2C)c1 > 76.9 µM
CC1C(=O)C(C)C(c2ccc3c(c2)OCO3)NC1c1ccc2c(c1)OCO2 (stereo not given) > 76.9 µM
COc1ccc(-n2c(CNC(=O)c3cc(OC)c(OC)c(OC)c3)n[nH]c2=S)cc1 > 76.9 µM
Cc1ccccc1N1C(=O)CC(N(O)c2ccccc2)C1=O (stereo not given) > 76.9 µM
CCCOc1ccc(N)cc1N > 76.9 µM
O=c1ccc(S(=O)(=O)N2CCC(Cc3ccccc3)CC2)c[nH]1 > 76.9 µM
Cc1ccc(S(=O)(=O)Cn2nnnc2C(C(C)C)N2CCc3ccccc3C2)cc1 (stereo not given) > 76.9 µM
CCOC(=O)Cc1c(C)nc2cc(-c3ccc(Cl)cc3)[nH]n2c1=O > 76.9 µM
COc1cccc2cc(C(=O)C3=C(O)C(=O)N(CCN(C)C)C3c3ccc(F)cc3)oc12 (stereo not given) > 76.9 µM
O=S(=O)(c1cccs1)N1CCc2ccccc2C1 > 76.9 µM
O=C(Nc1ccc2c(c1)OCO2)N1CCN(C/C=C/c2ccccc2)CC1 > 76.9 µM
Cc1ccc(C)c(NS(=O)(=O)c2ccc(OCC(=O)NCc3ccco3)cc2)c1 > 76.9 µM
COc1ccc(Cn2nnnc2C(c2ccccc2OC)N2CCC(C(N)=O)CC2)cc1 (stereo not given) > 76.9 µM
CC(=O)Nc1cccc(NC(=O)C2CCCN2C(=O)Nc2ccccc2C)c1 (stereo not given) > 76.9 µM
c1ccc(C2=Nn3c(nnc3-c3ccncc3)SC2)cc1 > 76.9 µM
N#CC1C(=O)NC(N2CCN(c3ccccc3)CC2)=NC12CCCCC2 (stereo not given) > 76.9 µM
CCc1noc(C)c1C(=O)N1CCCC1 > 76.9 µM
O=C(CSc1nc2cc(Cl)ccc2o1)N1CCOCC1 > 76.9 µM
Cc1ccc(CN2C3=NCCCN3c3ccccc32)cc1 > 76.9 µM
N#Cc1c(N)sc2c1CCCCCC2 > 76.9 µM
Cc1cccc(-n2c(SCC(=O)Nc3ccc4c(c3)OCO4)nnc2-c2ccoc2C)c1 > 76.9 µM
Cc1c(C(=O)OCC(=O)c2c(N)n(CC(C)C)c(=O)n(C)c2=O)oc2ccccc12 > 76.9 µM
COc1cccc(-c2cc(C(=O)N3C(C)CCCC3C)no2)c1 (stereo not given) > 76.9 µM
CC(C)(C)NC(=O)CSc1nncn1-c1ccccc1 > 76.9 µM
CC1CCN(Cc2nc3c(c(=O)n(C)c(=O)n3C)n2CCN2CCOCC2)CC1 > 76.9 µM
COc1ccc(OC)c(S(=O)(=O)N2Cc3ccccc3CC2C(=O)O)c1 (stereo not given) > 76.9 µM
CCOC(=O)c1cccc(NC(=O)C(C)N2C(=O)c3ccccc3C2=O)c1 (stereo not given) > 76.9 µM
COc1ccc(C2(O)CCN(CCCCOc3ccccc3)CC2)cc1 > 76.9 µM
O=C(NCc1ccco1)C1CCN(S(=O)(=O)N2CCOCC2)CC1 > 76.9 µM
CC(C)c1cc(C(=O)N2CCN(C(c3ccccc3)c3ccccc3)CC2)no1 > 76.9 µM
COc1ccccc1OCc1nc2c3c(-c4ccccc4)c(-c4ccccc4)oc3ncn2n1 > 76.9 µM
N#CC1=C(O)C(c2ccccc2)n2c1nc(=O)c1ccccc12 (stereo not given) > 76.9 µM
COc1ccc(Cc2nn3c(Cn4nnc5ccccc54)nnc3s2)cc1 > 76.9 µM
Cc1ccc(OCc2nnc(SCC(=O)Nc3ccc4c(c3)OCCO4)n2Cc2ccco2)cc1
COc1ccccc1Nc1nc(N)nc(CSc2nccc(C)n2)n1 > 76.9 µM
CCCCNC(=O)Nc1cc(C(F)(F)F)c[nH]c1=O > 76.9 µM
COc1cc(NS(=O)(=O)c2ccc(NC(=O)NC3CCCCC3)cc2)nc(OC)n1 > 76.9 µM
CC12CC(c3ccccc3O1)N(C(=O)c1ccco1)C(=O)N2c1ccccc1 (stereo not given) > 76.9 µM
COc1cccc(C(=O)NCc2n[nH]c(=S)n2-c2cccc(C)c2)c1 > 76.9 µM
Cn1c(SCC(=O)OCC(=O)c2ccccc2)nnc1-c1cccs1 > 76.9 µM
c1coc(Cn2c(-c3ccco3)nc3ccccc32)c1 > 76.9 µM
CCOC(=O)c1[nH]c(CSc2nnc(-c3ccc(OC)cc3)o2)c(C(=O)OCC)c1C > 76.9 µM
CCCOc1ccc(C2(C(=O)O)CCCC2)cc1 > 76.9 µM
CCn1c(SCC(=O)Nc2cc(C)c(Cl)cc2OC)nnc1-c1ccco1 > 76.9 µM
O=C(NCc1ccco1)c1cccc(F)c1 > 76.9 µM
O=C(O)c1cc(NCc2c(F)cccc2Cl)ccc1N1CCOCC1 > 76.9 µM
O=C(CSC1=NCCS1)Nc1ccc(S(=O)(=O)N2CCCCCC2)cc1 > 76.9 µM
Cc1cc(C)c(NC(=O)CN2C(=O)NC3(CCCCC3)C2=O)c(C)c1 > 76.9 µM
Cc1ccc(Cn2nnc(C(=O)Nc3cc(C)ccc3C)c2N)cc1 > 76.9 µM
Cc1cc(=O)[nH]c(N2CCN(C(c3ccccc3)c3ccccc3)CC2)n1 > 76.9 µM
CC1CCN(S(=O)(=O)c2ccc(NC(=O)Cn3nnc(-c4ccccc4)n3)cc2)CC1 > 76.9 µM
COc1ccc(/C(O)=C(\C#N)c2nc3ccccc3n2C)cc1OC > 76.9 µM
Cc1cc(C(=O)CSc2nnnn2C)c(C)n1-c1cccc(F)c1 > 76.9 µM
CCOC(=O)c1cnc(-n2nc(C)cc2C)nc1Nc1cccc(C(C)=O)c1 > 15.4 µM
COc1ccccc1NC(=O)N1CCCC1C(=O)Nc1ccc2c(c1)OCO2 (stereo not given) > 76.9 µM
COCCn1nnnc1C(C(C)C)N1CCC(Cc2ccccc2)CC1 (stereo not given) > 76.9 µM
CC1(C)CC(=O)c2c(-c3cccnc3)n[nH]c2C1 > 76.9 µM
CC1=CCC2C(=O)N(c3nc4ccccc4n3C)C(=O)C2C1 (stereo not given) > 76.9 µM
CCCC(c1nnnn1CCC(C)C)N1CCC(C(N)=O)CC1 (stereo not given) > 76.9 µM
COc1ccc(C2c3c(oc4ccccc4c3=O)C(=O)N2CC2CCCO2)cc1 (stereo not given) > 76.9 µM
CCOc1c(Br)cc(C(N)=O)cc1OC > 76.9 µM
Cn1c(COc2ccccc2)nnc1SCCSc1nnc(COc2ccccc2)n1C > 76.9 µM
O=C(OC(C(=O)NCc1cccs1)c1ccc(F)cc1)c1ccco1 (stereo not given) > 76.9 µM
CCN1CCCC1CNC(=O)c1cc2c(C)nc3ccccc3c2o1 (stereo not given) > 76.9 µM
